{"source": "ChEMBL document CHEMBL1132007", "about": "“The synthesis and biological evaluation of non-peptidic matrix metalloproteinase inhibitors” (Bioorg Med Chem Lett, 1999)", "key": {"Collagenase 3": {"target": "Collagenase 3 (Homo sapiens, UniProt P45452)"}, "Neutrophil collagenase": {"target": "Neutrophil collagenase (Homo sapiens, UniProt P22894)"}, "Interstitial collagenase": {"target": "T1, Interstitial collagenase (Homo sapiens, UniProt P03956)", "T1 sequence (P03956 whole entry)": "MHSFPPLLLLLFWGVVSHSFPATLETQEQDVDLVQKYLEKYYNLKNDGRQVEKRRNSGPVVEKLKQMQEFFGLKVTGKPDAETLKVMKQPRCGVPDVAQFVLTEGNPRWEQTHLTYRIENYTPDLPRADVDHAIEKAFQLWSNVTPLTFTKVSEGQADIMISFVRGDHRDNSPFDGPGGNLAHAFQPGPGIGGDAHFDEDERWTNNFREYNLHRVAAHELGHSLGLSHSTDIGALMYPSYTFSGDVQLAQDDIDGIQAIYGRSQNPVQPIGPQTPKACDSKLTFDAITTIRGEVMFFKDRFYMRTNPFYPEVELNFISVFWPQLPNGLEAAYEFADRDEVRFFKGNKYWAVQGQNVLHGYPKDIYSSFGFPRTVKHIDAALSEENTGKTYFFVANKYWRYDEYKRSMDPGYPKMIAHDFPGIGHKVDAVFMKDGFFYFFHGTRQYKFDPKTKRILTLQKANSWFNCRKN"}, "[1]": {"target": "72 kDa type IV collagenase (Homo sapiens, UniProt P08253)"}, "Stromelysin-1": {"target": "Stromelysin-1 (Homo sapiens, UniProt P08254)"}, "in vivo": {"assay": "in vivo", "details": "rat, po"}, "Rattus norvegicus": {"organism": "Rattus norvegicus", "details": "in vivo, po"}}}
{"smiles": "CC(C)N(C[C@H](C(=O)NO)[C@@H](CC1CCCC1)C(=O)N1CCCCC1)S(C)(=O)=O", "values": [{"measurement": "IC50", "setting": "Collagenase 3", "result": 600, "unit": "nM"}, {"measurement": "IC50", "setting": "Neutrophil collagenase", "result": 100, "unit": "nM"}]}
{"smiles": "CC(C)C[C@@H](C(=O)N(C)C)[C@H](CN(C)S(C)(=O)=O)C(=O)NO", "values": [{"measurement": "IC50", "setting": "Neutrophil collagenase", "result": 4000, "unit": "nM"}]}
{"smiles": "CN(C[C@H](C(=O)NO)[C@@H](CC1CCCC1)C(=O)N1CCOCC1)S(C)(=O)=O", "values": [{"measurement": "IC50", "setting": "Neutrophil collagenase", "result": 20, "unit": "nM"}]}
{"smiles": "CC(C)S(=O)(=O)N(C)C[C@H](C(=O)NO)[C@@H](CC1CCCC1)C(=O)N1CCCCC1", "values": [{"measurement": "IC50", "setting": "Collagenase 3", "result": 40, "unit": "nM"}, {"measurement": "IC50", "setting": "Neutrophil collagenase", "result": 9, "unit": "nM"}]}
{"smiles": "CN(C[C@H](C(=O)NO)[C@@H](CC1CCCC1)C(=O)N1CCCCC1)S(C)(=O)=O", "values": [{"measurement": "IC50", "setting": "Collagenase 3", "result": 400, "unit": "nM"}]}
{"smiles": "CCCN(C[C@H](C(=O)NO)[C@@H](CC1CCCC1)C(=O)N1CCCCC1)S(C)(=O)=O", "values": [{"measurement": "IC50", "setting": "Collagenase 3", "result": 200, "unit": "nM"}, {"measurement": "IC50", "setting": "Neutrophil collagenase", "result": 90, "unit": "nM"}]}
{"smiles": "CC(C)C[C@@H](C(=O)N1CCCCC1)[C@H](CN(C)S(=O)(=O)c1cccc2c(N(C)C)cccc12)C(=O)NO", "values": [{"measurement": "IC50", "setting": "Neutrophil collagenase", "result": 10, "unit": "nM"}, {"measurement": "IC50", "setting": "Interstitial collagenase", "result": 6, "unit": "nM"}]}
{"smiles": "CS(=O)(=O)N(C[C@H](C(=O)NO)[C@@H](CC1CCCC1)C(=O)N1CCCCC1)C1CCCC1", "values": [{"measurement": "IC50", "setting": "Collagenase 3", "result": 200, "unit": "nM"}, {"measurement": "IC50", "setting": "Neutrophil collagenase", "result": 200, "unit": "nM"}, {"measurement": "IC50", "setting": "Interstitial collagenase", "result": 20, "unit": "nM"}]}
{"smiles": "CC(C)C[C@@H](C(=O)N1CCCCC1)[C@H](O)C(=O)NO", "values": [{"measurement": "IC50", "setting": "[1]", "result": 500, "unit": "nM"}]}
{"smiles": "CN(C[C@H](C(=O)NO)[C@@H](CC1CCCC1)C(=O)N1CCCCC1)S(=O)(=O)c1cccc2ccccc12", "values": [{"measurement": "IC50", "setting": "Collagenase 3", "result": 8, "unit": "nM"}, {"measurement": "IC50", "setting": "Neutrophil collagenase", "result": 4, "unit": "nM"}]}
{"smiles": "CC(C)C[C@@H](C(=O)N1CCOCC1)[C@H](CN1C(=O)c2ccccc2C1=O)C(=O)NO", "values": [{"measurement": "IC50", "setting": "Collagenase 3", "result": 100, "unit": "nM"}, {"measurement": "IC50", "setting": "Stromelysin-1", "result": 5, "unit": "µM"}, {"measurement": "IC50", "setting": "[1]", "result": 2000, "unit": "nM"}]}
{"smiles": "COc1ccc(S(=O)(=O)N(C)C[C@H](C(=O)NO)[C@@H](CC2CCCC2)C(=O)N2CCOCC2)cc1", "values": [{"measurement": "IC50", "setting": "Collagenase 3", "result": 20, "unit": "nM"}, {"measurement": "IC50", "setting": "Neutrophil collagenase", "result": 3, "unit": "nM"}]}
{"smiles": "CCS(=O)(=O)N(C)C[C@H](C(=O)NO)[C@@H](CC1CCCC1)C(=O)N1CCCCC1", "values": [{"measurement": "IC50", "setting": "Collagenase 3", "result": 40, "unit": "nM"}, {"measurement": "IC50", "setting": "Neutrophil collagenase", "result": 10, "unit": "nM"}, {"measurement": "IC50", "setting": "Interstitial collagenase", "result": 6, "unit": "nM"}]}
{"smiles": "CS(=O)(=O)N(C[C@H](C(=O)NO)[C@@H](CC1CCCC1)C(=O)N1CCCCC1)C1CC1", "values": [{"measurement": "IC50", "setting": "Neutrophil collagenase", "result": 40, "unit": "nM"}]}
{"smiles": "CCS(=O)(=O)N(C)C[C@H](C(=O)NO)[C@@H](CC(C)C)C(=O)N1CCCCC1", "values": [{"measurement": "IC50", "setting": "Neutrophil collagenase", "result": 100, "unit": "nM"}, {"measurement": "IC50", "setting": "Interstitial collagenase", "result": 50, "unit": "nM"}]}
{"smiles": "CN(C[C@H](C(=O)NO)[C@@H](CC1CCCC1)C(=O)N1CCCCC1)S(=O)(=O)C(F)(F)F", "values": [{"measurement": "IC50", "setting": "Collagenase 3", "result": 40, "unit": "nM"}, {"measurement": "IC50", "setting": "Neutrophil collagenase", "result": 10, "unit": "nM"}]}
{"smiles": "COc1ccc(S(=O)(=O)N(C)C[C@H](C(=O)NO)[C@@H](CC(C)C)C(=O)N2CCCCC2)cc1", "values": [{"measurement": "IC50", "setting": "Collagenase 3", "result": 100, "unit": "nM"}, {"measurement": "IC50", "setting": "Neutrophil collagenase", "result": 20, "unit": "nM"}, {"measurement": "IC50", "setting": "Interstitial collagenase", "result": 80, "unit": "nM"}]}
{"smiles": "COc1ccc(S(=O)(=O)N(C)C[C@H](C(=O)NO)[C@@H](CC2CCCC2)C(=O)N2CCCCC2)cc1", "values": [{"measurement": "IC50", "setting": "Neutrophil collagenase", "result": 3, "unit": "nM"}, {"measurement": "IC50", "setting": "Interstitial collagenase", "result": 10, "unit": "nM"}]}
{"smiles": "CC(C)C[C@@H](C(=O)N1CCCCC1)[C@H](CN(C)S(C)(=O)=O)C(=O)NO", "values": [{"measurement": "IC50", "setting": "Neutrophil collagenase", "result": 100, "unit": "nM"}]}
{"smiles": "CN(C)c1cccc2c(S(=O)(=O)N(C)C[C@H](C(=O)NO)[C@@H](CC3CCCC3)C(=O)N3CCCCC3)cccc12", "values": [{"measurement": "IC50", "setting": "Interstitial collagenase", "result": 2, "unit": "nM"}]}
{"smiles": "CN(C)S(=O)(=O)N(C)C[C@H](C(=O)NO)[C@@H](CC1CCCC1)C(=O)N1CCCCC1", "values": [{"measurement": "Cmax at 6 h", "setting": "in vivo", "result": 47.5, "unit": "ng/mL"}, {"measurement": "IC50", "setting": "Collagenase 3", "result": 40, "unit": "nM"}, {"measurement": "AUC", "setting": "Rattus norvegicus", "result": 904, "unit": "ng/mL/h"}, {"measurement": "IC50", "setting": "Neutrophil collagenase", "result": 10, "unit": "nM"}, {"measurement": "IC50", "setting": "Interstitial collagenase", "result": 6, "unit": "nM"}]}
{"smiles": "CN(C[C@H](C(=O)NO)[C@@H](CC1CCCC1)C(=O)N1CCCCC1)S(=O)(=O)c1ccc(Cl)cc1", "values": [{"measurement": "IC50", "setting": "Collagenase 3", "result": 10, "unit": "nM"}, {"measurement": "IC50", "setting": "Neutrophil collagenase", "result": 4, "unit": "nM"}]}
